The source of these data is the antibiotic and cytotoxicity screens of Wong et al. (2023).

The other results are listed elsewhere or left out.

One experiment has as its system HSkMC. The experiment in a line: cytotoxicity call (relative viability < 0.9). The settings on record: 10 µM.
The next experiment has as its system HepG2. The experiment can be described thus: cytotoxicity call (relative viability < 0.9). The settings on record: 10 µM.
For a further experiment, the system named is S. aureus RN4220. The experiment in a line: growth inhibition call (relative growth <= 0.2). The settings on record: 50 µM.

Take `COCCN1C(=O)C[C@@H]2[C@@H]1CCN2C(=O)c1csnn1`: the cytotoxicity call in the experiment on HSkMC and in the experiment with HepG2 was “inactive” each time. For the same compound, in the experiment on S. aureus RN4220, the growth inhibition call was “inactive”.
Regarding `C[C@@H]1CN([C@H](C)CO)C(=O)CCCn2cc(nn2)CO[C@@H]1CN(C)C(=O)Nc1ccccc1C(F)(F)F`, the cytotoxicity call with HSkMC was “inactive”. In the experiment on HepG2, the cytotoxicity call was “active”. Further, the growth inhibition call in the experiment with S. aureus RN4220 is “inactive”.
As for `O=c1ccn([C@H]2O[C@H](CO)[C@@H](O)[C@@H]2O)c(=S)[nH]1`, the cytotoxicity call in the experiment on HSkMC was “inactive”. Moreover, the cytotoxicity call in the experiment on HepG2 is “active”. Further, the growth inhibition call with S. aureus RN4220 was “inactive”.
As to `O=C(C[C@@H]1CC[C@H]2[C@@H](COC[C@H](O)CN2C(=O)c2cnccn2)O1)NCc1ccc(Oc2ccccc2)cc1`, the cytotoxicity call in the experiment on HSkMC and with HepG2 was “inactive” each time. Moreover, in the experiment with S. aureus RN4220, the growth inhibition call is “inactive”.
Take `C[C@@H]1CN([C@H](C)CO)C(=O)c2cc(NC(=O)Nc3ccccc3)ccc2O[C@@H](C)CCCCO[C@H]1CN(C)S(=O)(=O)c1ccccc1`: the cytotoxicity call in the experiment on HSkMC and in the experiment with HepG2 was “inactive” throughout. The growth inhibition call in the experiment on S. aureus RN4220 is “inactive”.
On to `C[C@H](CO)N1C[C@H](C)[C@@H](CN(C)C(=O)CN2CCOCC2)Oc2ncc(-c3cncnc3)cc2C1=O`, for which the cytotoxicity call with HSkMC and in the experiment on HepG2 was “inactive” throughout. Also, the growth inhibition call with S. aureus RN4220 was “inactive”.
As to `CCNC(=O)[C@H]1[C@H](CO)[C@H]2Cn3c(ccc(-c4cccc(C(=O)N(C)C)c4)c3=O)[C@@H]1N2`, the cytotoxicity call in the experiment on HSkMC and with HepG2 was “inactive” throughout. Besides, in the experiment on S. aureus RN4220, the growth inhibition call was “inactive”.
Turning to `C[C@H](CO)N1C[C@H](C)[C@H](CN(C)S(=O)(=O)c2ccc(F)cc2)Oc2c(NC(=O)C3CC3)cccc2C1=O`, the cytotoxicity call in the experiment with HSkMC and in the experiment with HepG2 was “inactive” throughout. Besides, in the experiment with S. aureus RN4220, the growth inhibition call was “inactive”.
Take `C[C@@H]1CCCCO[C@@H](CN(C)C(=O)Cc2ccccc2)[C@H](C)CN([C@@H](C)CO)C(=O)c2cc(NC(=O)Nc3ccc4c(c3)OCO4)ccc2O1`: the cytotoxicity call in the experiment with HSkMC and with HepG2 was “inactive” in each case. The growth inhibition call in the experiment with S. aureus RN4220 is “inactive”.
Consider `C[C@@H]1CN([C@H](C)CO)S(=O)(=O)c2ccc(-c3ccc(C(=O)N(C)C)cc3)cc2O[C@H]1CN(C)C(=O)C1CCC1`, for which the cytotoxicity call in the experiment on HSkMC and in the experiment with HepG2 was “inactive” in each case. In addition, the growth inhibition call in the experiment on S. aureus RN4220 was “inactive”.
Consider `O=C1CCC(C(=O)O)CC1`, for which the cytotoxicity call in the experiment on HSkMC and with HepG2 was “inactive” each time. For the same compound, in the experiment with S. aureus RN4220, the growth inhibition call was “inactive”.
Regarding `C[C@@H]1CCCCO[C@@H](CN(C)S(=O)(=O)c2ccc(F)cc2)[C@@H](C)CN([C@@H](C)CO)C(=O)c2cc(NC(=O)CCC(F)(F)F)ccc2O1`, the cytotoxicity call in the experiment with HSkMC and in the experiment with HepG2 was “inactive” throughout. For the same compound, the growth inhibition call with S. aureus RN4220 was “inactive”.
Consider `Cc1ccc(S(=O)(=O)N(C)C[C@@H]2Oc3ncc(-c4ccncc4)cc3C(=O)N([C@H](C)CO)C[C@@H]2C)cc1`, for which the cytotoxicity call in the experiment with HSkMC and with HepG2 was “inactive” throughout. Also, in the experiment on S. aureus RN4220, the growth inhibition call was “inactive”.
For `COCC(=O)N1[C@@H]2c3cccc(=O)n3C[C@@H]2[C@@H](CO)[C@@H]1C(=O)NCc1ccccc1`, the cytotoxicity call with HSkMC and in the experiment on HepG2 was “inactive” in each case. In addition, the growth inhibition call in the experiment with S. aureus RN4220 was “inactive”.
As for `CCO[C@@H]1OC(C(=O)N2CCN(Cc3ccccc3)CC2)=C[C@H](C)[C@H]1CCCOC(=O)NCCCCCC(=O)NO`, the cytotoxicity call with HSkMC and in the experiment on HepG2 was “inactive” throughout. Moreover, the growth inhibition call in the experiment on S. aureus RN4220 was “inactive”.
Take `C[C@@H]1CN([C@@H](C)CO)C(=O)Cc2cc(NC(=O)Nc3ccccc3)ccc2O[C@H]1CN(C)C(=O)Nc1ccc(C(F)(F)F)cc1`: the cytotoxicity call with HSkMC and in the experiment on HepG2 was “inactive” throughout. Further, the growth inhibition call with S. aureus RN4220 is “inactive”.
Consider `Cc1cc(C(=O)Nc2cccc3c2O[C@H](CN(C)S(=O)(=O)c2ccccc2)[C@@H](C)CN([C@H](C)CO)C3=O)n(C)n1`, for which the cytotoxicity call in the experiment with HSkMC and with HepG2 was “inactive” each time. Also, the growth inhibition call in the experiment with S. aureus RN4220 was “inactive”.
For the compound `C[C@H](CO)N1C[C@H](C)[C@@H](CN(C)C(=O)c2ccncc2)OCCCC[C@H](C)Oc2ccc(NS(C)(=O)=O)cc2C1=O`, the cytotoxicity call in the experiment on HSkMC and in the experiment on HepG2 was “inactive” each time. Besides, the growth inhibition call in the experiment on S. aureus RN4220 was “inactive”.
Turning to `S=C=Nc1ccc(N=C=S)cc1`, the cytotoxicity call with HSkMC and with HepG2 was “inactive” in each case. For the same compound, in the experiment with S. aureus RN4220, the growth inhibition call was “inactive”.
For the compound `C[C@H]1CN([C@@H](C)CO)C(=O)c2cc(NC(=O)NC3CCCCC3)ccc2O[C@H]1CN(C)Cc1ccc(Oc2ccccc2)cc1`, the cytotoxicity call in the experiment on HSkMC and in the experiment on HepG2 was “inactive” each time. The growth inhibition call with S. aureus RN4220 was “inactive”.
For `C[C@H](CO)N1C[C@H](C)[C@@H](CN(C)C(=O)CCN2CCCCC2)Oc2ncc(C#Cc3ccccc3)cc2C1=O`, the cytotoxicity call with HSkMC and with HepG2 was “inactive” throughout. For the same compound, the growth inhibition call in the experiment with S. aureus RN4220 was “inactive”.
In the case of `C[C@H]1CN([C@@H](C)CO)C(=O)c2cc(NC(=O)Nc3ccc(C(F)(F)F)cc3)ccc2O[C@@H]1CN(C)Cc1ccncc1`, in the experiment with HSkMC, the cytotoxicity call is “inactive”. Besides, in the experiment with HepG2, the cytotoxicity call was “active”. For the same compound, in the experiment on S. aureus RN4220, the growth inhibition call is “inactive”.
On to `Cc1cc(C(=O)Nc2cccc3c2O[C@@H](CN(C)C(=O)Nc2c(C)noc2C)[C@@H](C)CN([C@@H](C)CO)C3=O)n(C)n1`, for which the cytotoxicity call in the experiment on HSkMC and in the experiment on HepG2 was “inactive” in each case. Besides, in the experiment on S. aureus RN4220, the growth inhibition call was “inactive”.
As to `Cc1noc(C)c1NC(=O)Nc1ccc2c(c1)C(=O)N([C@@H](C)CO)C[C@@H](C)[C@H](CN(C)S(=O)(=O)c1ccc(F)cc1)OCCCC[C@@H](C)O2`, the cytotoxicity call in the experiment with HSkMC and with HepG2 was “inactive” in each case. In addition, in the experiment on S. aureus RN4220, the growth inhibition call is “inactive”.
As for `C[C@@H]1CCCCO[C@@H](CN(C)Cc2ccc(C(=O)Nc3ccccc3N)cc2)[C@@H](C)CN([C@@H](C)CO)C(=O)c2cc(N(C)C)ccc2O1`, the cytotoxicity call in the experiment on HSkMC (human skeletal muscle cells) and with HepG2 was “inactive” in each case. Besides, the growth inhibition call in the experiment with S. aureus RN4220 was “inactive”.
For `COc1ccc(NC(=O)N(C)C[C@H]2OCCCC[C@@H](C)Oc3ccc(NS(=O)(=O)c4ccc(F)cc4)cc3C(=O)N([C@H](C)CO)C[C@@H]2C)cc1`, the cytotoxicity call with HSkMC and in the experiment on HepG2 was “inactive” throughout. Moreover, the growth inhibition call in the experiment on S. aureus RN4220 was “inactive”.
Consider `CC=Cc1ccc2n(c1=O)C[C@H]1[C@H](CO)[C@@H](C(=O)NCCCN3CCOCC3)[C@@H]2N1Cc1cocn1`, for which the cytotoxicity call with HSkMC and in the experiment on HepG2 was “inactive” throughout. Besides, in the experiment on S. aureus RN4220, the growth inhibition call is “inactive”.
